Assay results: the supplement of paper PMC12582362
Where a name gives a salt, the structure may show the parent alone. Among all 1,500 compounds or so, about 30 (2%) showed activity.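 How the source made its calls: active = robust z-score below -2; a few such results were not called.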 The list shows a part of the results.

These compounds were tested on optoTopBP1 Flp-In 293 T-REx (HEK293) cells (assay: light-induced TopBP1 condensate (nuclear foci) count, plate-normalised robust z-score vs non-control wells; higher = more TopBP1 condensates (negative = condensation inhibitor), active = hit call of the paper). Conditions: 10 µM; incubation time 2 h.

SMILES	light-induced TopBP1 condensate (z-score)
CN1CCN(C2=Nc3ccccc3Oc3ccc(Cl)cc32)CC1 [Loxapine succinate]	inactive: -0.0703
C#C[C@]1(O)CC[C@H]2[C@@H]3[C@H](C)CC4=C(CCC(=O)C4)[C@H]3CC[C@@]21C [Tibolone]	inactive: -0.176
O=C(O)COc1nn(Cc2ccccc2)c2ccccc12 [Bendazac]	inactive: -0.242
CC(=O)OCC(=O)[C@@]1(O)CC[C@H]2[C@@H]3CCC4=CC(=O)C=C[C@]4(C)[C@@]3(F)[C@@H](O)C[C@@]21C [Isoflupredone acetate]	inactive: 0.491
COc1cc(C(=O)N2CCOCC2)cc(OC)c1OC [Trimetozine]	inactive: 0.804
CN(C)CCCOc1nn(Cc2ccccc2)c2ccccc12 [Benzydamine hydrochloride]	inactive: -0.931
Cc1cc2nc3ccc(N(C)C)cc3[s+]c2cc1N [Tolonium chloride]	active: -9.72
Nc1ccc(S(=O)(=O)Nc2ccc(Cl)nn2)cc1 [Sulfachloropyridazine]	inactive: -0.653
COc1cc2nc(N3CCN(C(=O)C4CCCO4)CC3)nc(N)c2cc1OC (configuration not stated) [Terazosin hydrochloride]	inactive: 0.637
C[N+]1(C)CCC(=C(c2ccccc2)c2ccccc2)CC1 [Diphemanil methylsulfate]	inactive: 0.515
NS(=O)(=O)c1cc2c(cc1Cl)NCNS2(=O)=O [Hydrochlorothiazide]	inactive: -0.0762
CN(C)CCC=C1c2ccccc2C=Cc2ccccc21 [Cyclobenzaprine hydrochloride]	inactive: 0.551
COc1ccc(-c2noc(CC(=O)O)c2-c2ccc(OC)cc2)cc1 [Mofezolac]	inactive: 0.854
CN(C)CCc1c[nH]c2ccc(C[C@H]3COC(=O)N3)cc12 [Zolmitriptan]	inactive: 0.251
O=c1[nH]c(=O)n([C@H]2C[C@H](O)[C@@H](CO)O2)cc1F [Floxuridine]	inactive: 0.191
CNNCc1ccc(C(=O)NC(C)C)cc1 [Procarbazine hydrochloride]	inactive: 0.0724
COc1cc(C)c(/C=C/C(C)=C/C=C/C(C)=C/C(=O)O)c(C)c1C [Acitretin]	inactive: 0.574
CC(C)OC(=O)CCC/C=C\C[C@@H]1[C@@H](CC[C@@H](O)CCc2ccccc2)[C@H](O)C[C@@H]1O [Latanoprost]	inactive: -0.272
CC(=O)Oc1cc(C(C)C)c(OCCN(C)C)cc1C [Moxisylyte hydrochoride]	inactive: 1.45
CC(c1cc2ccccc2s1)N(O)C(N)=O (configuration not stated) [Zileuton]	inactive: 1.35
CCn1cc(C(=O)O)c(=O)c2cc(F)c(N3CCN(C)CC3)cc21 [Pefloxacine]	inactive: 1.26
Cc1ccc(S(=O)(=O)NCl)cc1 [Chloramine-T hydrate]	inactive: -1.44
COc1cc(N)cn[n+]1-c1ccccc1 [Amezinium metilsulfate]	inactive: 0.428

SMILES	light-induced TopBP1 condensate (z-score)
C[C@@H]1CN(c2c(F)c(N)c3c(=O)c(C(=O)O)cn(C4CC4)c3c2F)C[C@H](C)N1 [Sparfloxacin]	inactive: -0.367
C[C@]12C=CC(=O)C=C1CC[C@@H]1[C@@H]2C(=O)C[C@@]2(C)[C@H]1CC[C@]2(O)C(=O)CO [Prednisone]	inactive: 0.993
CS(=O)(=O)Nc1ccc([N+](=O)[O-])cc1Oc1ccccc1 [Nimesulide]	inactive: -0.0652
COc1cc(C)nc(-n2nc(C)cc2OC)n1 [Epirizole]	inactive: -0.0326
CCn1cc(C(=O)O)c(=O)c2cc(F)c(N3CCNC(C)C3)c(F)c21 (configuration not stated) [Lomefloxacin hydrochloride]	inactive: 0.191
NC(=O)c1cc[n+](CC2=C(C(=O)O)N3C(=O)[C@@H](NC(=O)C(c4ccccc4)S(=O)(=O)[O-])[C@H]3SC2)cc1 (some centres not stated) [Cefsulodin Sodium Salt Hydrate]	inactive: -0.446
CNC(=C[N+](=O)[O-])NCCSCc1csc(CN(C)C)n1 [Nizatidine]	inactive: -0.771
CC(C)CN(C[C@@H](O)[C@H](Cc1ccccc1)NC(=O)O[C@H]1CCOC1)S(=O)(=O)c1ccc(N)cc1 [Amprenavir]	inactive: 1.18
CNCCC=C1c2ccccc2CCc2ccccc21 [Nortriptyline hydrochloride]	inactive: -0.909
C[C@H]1[C@H](NC(=O)/C(=N\OC(C)(C)C(=O)O)c2csc(N)n2)C(=O)N1S(=O)(=O)O [Aztreonam]	inactive: -0.276
CCc1c2c(nc3ccc(OC(=O)N4CCC(N5CCCCC5)CC4)cc13)-c1cc3c(c(=O)n1C2)COC(=O)[C@]3(O)CC [Irinotecan hydrochloride trihydrate]	inactive: 1.07
CC(C)(O/N=C(\C(=O)N[C@@H]1C(=O)N2C(C(=O)[O-])=C(C[n+]3ccccc3)CS[C@H]12)c1csc(N)n1)C(=O)O [Ceftazidime pentahydrate]	inactive: 0.278
Cc1c(Cl)cccc1Nc1ncccc1C(=O)O [Clonixin Lysinate]	inactive: 0.77
CCc1oc2ccccc2c1C(=O)c1cc(I)c(O)c(I)c1 [Benziodarone]	inactive: -0.0729
CN1CCN(C(c2ccccc2)c2ccc(Cl)cc2)CC1 (configuration not stated) [Chlorcyclizine hydrochloride]	inactive: 0.227
O=C(N/N=C/c1ccc([N+](=O)[O-])o1)c1ccc(O)cc1 [Nifuroxazide]	inactive: -1.09
CC(C)(C)NCC(O)CSc1nc(-c2ccc(C(N)=O)s2)cs1 (configuration not stated) [Arotinolol hydrochloride]	inactive: -0.455
NC(=O)c1ncn([C@@H]2O[C@H](CO)[C@@H](O)[C@H]2O)c1O [Mizoribine]	inactive: -0.419
CCC(=O)[C@@]1(C)[C@H](C)C[C@H]2[C@@H]3CCC4=CC(=O)C=C[C@]4(C)[C@H]3[C@@H](O)C[C@@]21C [Rimexolone]	inactive: -0.191
CC(=O)Nc1c(I)c(NC(C)=O)c(I)c(C(=O)O)c1I [Diatrizoic acid dihydrate]	inactive: -0.965
CCc1cc(C(N)=S)ccn1 [Ethionamide]	inactive: 0.448
CN(N=O)C(=O)N[C@@H](C=O)[C@@H](O)[C@H](O)[C@H](O)CO [Streptozotocin]	inactive: 1.22
N[C@H](Cc1ccccc1)C(=O)O [D-phenylalanine]	inactive: -1.1

SMILES	light-induced TopBP1 condensate (z-score)
CCOC(=O)Nc1ccc2c(c1)N(C(=O)CCN1CCOCC1)c1ccccc1S2 [Moricizine hydrochloride]	inactive: 2.02
COC(=O)[C@H]1[C@H]2C[C@@H]3c4[nH]c5cc(OC)ccc5c4CCN3C[C@H]2C[C@@H](OC(=O)c2cc(OC)c(OC)c(OC)c2)[C@@H]1OC [Reserpine]	inactive: -0.957
CC(C)C[C@H](NC(=O)[C@@H](O)[C@H](N)Cc1ccccc1)C(=O)O [Ubenimex]	inactive: -0.837
CCOC(=O)[C@H](CCc1ccccc1)N[C@@H](C)C(=O)N1[C@H](C(=O)O)C[C@H]2CCCC[C@@H]21 [Trandolapril]	inactive: 0.596
CCOc1ccccc1C(N)=O [Ethenzamide]	inactive: -0.0402
CCN(CC)CCCC(C)Nc1c2ccc(Cl)cc2nc2ccc(OC)cc12 (configuration not stated) [Quinacrine dihydrochloride hydrate]	active: -3.15
Cc1nc(C)c(Cl)c(O)c1Cl [Clopidol]	inactive: 0.31
CCCCCCCCCCCCCCCC[N+](C)(C)CCN(Cc1ccc(OC)cc1)c1ncccn1 [Thonzonium bromide]	active: -2.49
CC(C)NCC(O)c1ccc(NS(C)(=O)=O)cc1 (configuration not stated) [Sotalol hydrochloride]	inactive: -0.108
C#C[C@]1(O)CC[C@H]2[C@@H]3CCc4cc(OC)ccc4[C@H]3CC[C@@]21C [Ethynylestradiol 3-methyl ether]	inactive: -0.145
CC(=O)N1CCN(c2ccc(OCC3COC(Cn4ccnc4)(c4ccc(Cl)cc4Cl)O3)cc2)CC1 (configuration not stated) [Ketoconazole]	inactive: 0.453
CN(CCOc1ccc(NS(C)(=O)=O)cc1)CCc1ccc(NS(C)(=O)=O)cc1 [Dofetilide]	inactive: -1.07
CCN(CC)CCOC(=O)C1(c2ccc([N+](=O)[O-])cc2)CCCC1 [Nitrocaramiphen hydrochloride]	inactive: 0.714
Nc1ccc(O)c(C(=O)O)c1 [Mesalamine]	inactive: -0.121
Cc1cc(NC(=O)C2=C(O)c3ccccc3S(=O)(=O)N2C)no1 [Isoxicam]	inactive: 0.298
Cc1cc(C(C)(C)CC(C)(C)C)ccc1OCCOCC[N+](C)(C)Cc1ccccc1 [Methyl benzethonium chloride]	inactive: -0.593
CO[C@@]1(NC(=O)C2SC(=C(C(N)=O)C(=O)O)S2)C(=O)N2C(C(=O)O)=C(CSc3nnnn3C)CS[C@@H]21 (some centres not stated) [Cefotetan]	inactive: 0.425
CN(C)CCCN1c2ccccc2CCc2ccc(Cl)cc21 [Clomipramine hydrochloride]	inactive: -1.47
C#C[C@]1(OC(C)=O)CC[C@H]2[C@@H]3CCC4=C[C@@H](OC(C)=O)CC[C@@H]4[C@H]3CC[C@@]21C [Ethynodiol diacetate]	inactive: -0.982
Nc1ccc(S(=O)(=O)Nc2ncccn2)cc1 [Sulfadiazine]	inactive: 0.227
CO[C@@]1(NC(=O)C(C(=O)O)c2ccc(O)cc2)C(=O)N2C(C(=O)O)=C(CSc3nnnn3C)CO[C@@H]21 (some centres not stated) [Moxalactam disodium salt]	inactive: 0.553
